Source: EPA's CvTdb concentration-time database
Further values from the same series stand in other lists.

Experiments:
[1] = test system: Rat; assay: concentration in brain after dosing; conditions: 1.5 h; dosed: 2-Methyltetrahydrofuran; 10 mg/kg; iv; Female; F344
[2] = test system: Rat; assay: concentration in brain after dosing; conditions: 1 h; dosed: 2-Methyltetrahydrofuran; 30 mg/kg; oral; Male; F344
[3] = test system: Rat; assay: concentration in plasma after dosing; conditions: 0.75 h; dosed: 2-Methyltetrahydrofuran; 400 mg/kg; oral; Female; Harlan Sprague Dawley
[4] = test system: Rat; assay: concentration in plasma after dosing; conditions: 0.5 h; dosed: 2-Methyltetrahydrofuran; 30 mg/kg; oral; Male; F344
[5] = test system: Rat; assay: concentration in plasma after dosing; conditions: 1 h; dosed: 2-Methyltetrahydrofuran; 10 mg/kg; oral; Female; F344
[6] = test system: Rat; assay: concentration in plasma after dosing; conditions: 2.5 h; dosed: 2-Methyltetrahydrofuran; 10 mg/kg; oral; Female; F344
[7] = test system: Rat; assay: concentration in plasma after dosing; conditions: 8 min; dosed: 2-Methyltetrahydrofuran; 30 mg/kg; oral; Male; F344
[8] = test system: Rat; assay: concentration in plasma after dosing; conditions: 4 h; dosed: 2-Methyltetrahydrofuran; 400 mg/kg; oral; Female; Harlan Sprague Dawley
[9] = test system: Rat; assay: concentration in plasma after dosing; conditions: 0.75 h; dosed: 2-Methyltetrahydrofuran; 10 mg/kg; oral; Female; F344
[10] = test system: Rat; assay: concentration in plasma after dosing; conditions: 2 h; dosed: Formamide; 30 mg/kg; iv; Female; F344
[11] = test system: Rat; assay: concentration in plasma after dosing; conditions: dosed: Formamide, 90 mg/kg, iv, Male, Harlan Sprague Dawley
[12] = test system: Rat; assay: concentration in plasma after dosing; conditions: dosed: Formamide, 30 mg/kg, iv, Female, F344
[13] = test system: Rat; assay: concentration in plasma after dosing; conditions: dosed: Formamide, 30 mg/kg, iv, Female, F344; remark: listed apart in the source
[14] = test system: Rat; assay: concentration in plasma after dosing; conditions: 6 h; dosed: Pyridine; 50 mg/kg; oral; Female; F344
[15] = test system: Rat; assay: concentration in plasma after dosing; conditions: 1 h; dosed: Pyridine; 0.5 mg/kg; iv; Male; F344
[16] = test system: Rat; assay: concentration in plasma after dosing; conditions: 5 min; dosed: Pyridine; 10 mg/kg; iv; Male; Harlan Sprague Dawley

With `CC1CCCO1` (centres undefined) [2-Methyltetrahydrofuran] the concentration in brain [1] was 0.264 µg/g, the concentration in brain [2] was 7.08 µg/g and the concentration in plasma [3] was 165000 ng/mL. For the same compound, the concentration in plasma [4] was 15600 ng/mL, the concentration in plasma [5] was 705 ng/mL and the concentration in plasma [6] was 72.9 ng/mL. For the same compound, the concentration in plasma [7] was 14600 ng/mL, the concentration in plasma [8] was 155000 ng/mL and the concentration in plasma [9] was 1360 ng/mL.
With `NC=O` [Formamide] the concentration in plasma [10] was 41400 ng/mL, the concentration in plasma ([11]; 1 h) was 192000 ng/mL and the concentration in plasma ([11]; 3 h) was 136000 ng/mL. The concentration in plasma ([12]; 1 h) was 46000 ng/mL, the concentration in plasma ([12]; 3 h) was 34200 ng/mL and the concentration in plasma ([13]; 8 h) was 25000 ng/mL. For the same compound, the concentration in plasma ([13]; 12 h) was 17100 ng/mL.
`c1ccncc1` [Pyridine] gave a concentration in plasma [14] of 8870 ng/mL, a concentration in plasma [15] of 52.5 ng/mL and a concentration in plasma [16] of 7500 ng/mL.
